Data from PubChem BioAssay AID2147 (National Center for Advancing Translational Sciences (NCATS), 2009).
Among all 230,000 compounds or so, about 3,600 (1.6%) were called active. Inconclusive results, whose numbers are uncertain, are shown with a selection of clear calls. Calls follow the shape of the dose curve; as a rule, active = well fitted inhibition curve with a large enough effect (not every such curve was filed as active); inconclusive = small, poorly fitted or top-dose-only effect, or another doubt; inactive = no such curve, though single readings can be large or run the other way. Where the call is inconclusive, the potency comes from a doubtful curve fit.
Also: nearly all actives have a fitted effect of over 50% in size.
Potency is read from the fitted curve at half-maximal effect; tags tell the direction and shape of the fitted curve.

The compounds below were run against Lysine-specific demethylase 4E (Homo sapiens) (UniProt B2RXH2) (assay: qHTS Assay for Inhibitors of Human Jumonji Domain Containing 2E (JMJD2E)). Conditions: JMJD2E catalytic domain, FDH-coupled NADH fluorescence (FDH is formaldehyde dehydrogenase); series mostly up to 57.1 µM.
Sequence of UniProt B2RXH2 (B2RXH2 whole entry, looked up, the tested form may be a part): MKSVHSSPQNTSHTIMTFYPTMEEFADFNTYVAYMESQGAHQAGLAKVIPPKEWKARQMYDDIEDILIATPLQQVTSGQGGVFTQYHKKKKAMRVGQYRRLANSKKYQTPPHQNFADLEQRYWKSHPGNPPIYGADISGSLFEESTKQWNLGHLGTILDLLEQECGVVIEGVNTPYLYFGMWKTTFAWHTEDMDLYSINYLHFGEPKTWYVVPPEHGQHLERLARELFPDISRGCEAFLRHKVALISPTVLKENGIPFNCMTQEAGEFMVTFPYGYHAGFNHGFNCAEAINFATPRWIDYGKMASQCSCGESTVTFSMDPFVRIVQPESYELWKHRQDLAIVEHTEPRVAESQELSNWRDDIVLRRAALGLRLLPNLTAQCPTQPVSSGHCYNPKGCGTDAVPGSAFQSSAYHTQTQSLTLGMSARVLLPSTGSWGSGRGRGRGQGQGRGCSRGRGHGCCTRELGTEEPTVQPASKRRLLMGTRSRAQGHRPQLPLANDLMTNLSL
In the case of `COC(=O)/C=C\c1cc(O)ccc1O`, the Potency is reported as active: 31.6 µM.
With `C=C(C(=O)O)C(CCCCCC)C(=O)O` (configuration not stated) the Potency was “inactive”.
`Cc1ccc2[nH]c3c(N4CCOCC4)ncnc3c2c1` was tested, and the Potency was inconclusive: 28.2 µM [inhibitor, partial curve].
For `CCN(CC)S(=O)(=O)c1ccc2nc(NC(=O)c3cccs3)sc2c1`, the Potency was inconclusive: 31.6 µM [inhibitor, single point].
`COc1ccc(CN2CCc3cc(OC)c(OC)cc3C2)cc1O` was tested, and the Potency was inconclusive: 25.1 µM [inhibitor, single point].
For `Cc1ccc(/C(=N\O)c2oc3c(C)c4oc(=O)cc(C)c4cc3c2C)cc1`, the Potency was inconclusive: 28.2 µM [inhibitor, partial curve].
With `COC(=O)CS(=O)(=O)c1cccc2cccnc12` the Potency was “inactive”.
`O=C(SCC(O)C(O)CS)c1cccs1` (configuration not stated) was tested, and the Potency was “inactive”.
In the case of `O=C(c1ccc(Cn2cc(Cl)c([N+](=O)[O-])n2)cc1)N1CCN(Cc2ccccc2)CC1`, the Potency is reported as “inactive”.
`CC(C)(C)n1nnnc1C(c1cc2cc3c(cc2[nH]c1=O)OCO3)N1CCN(c2ccccc2)CC1` (configuration not stated) was tested, and the Potency was inconclusive: 28.2 µM [inhibitor, partial curve].
With `Clc1cccc(-c2ccc(/C=N/n3cnnc3)o2)c1` the Potency was inconclusive: 39.8 µM [inhibitor, single point].
`O=C(Nc1ccccc1C(=O)N1CCCCC1)NC1CCCCC1` was tested, and the Potency was inconclusive: 22.4 µM [inhibitor, partial curve, poor fit].
In the case of `Cn1cccc1C(C#N)(CC#N)c1cccc(F)c1C#N` (configuration not stated), the Potency is reported as “inactive”.
In the case of `CC(C)CCNC(=O)C(c1ccncc1)N(Cc1cccs1)C(=O)Cn1nnc(-c2ccc(F)cc2)n1` (configuration not stated), the Potency is reported as inconclusive: 31.6 µM [inhibitor, single point].
With `O=C(N/N=C\c1ccc(-c2ccc([N+](=O)[O-])cc2)o1)c1ccc2c(c1)OCO2` the Potency was “inactive”.
For `CCCCOC(=O)C1=C(C)NC2=C(C(=O)CCC2)C1c1cc(OC)ccc1OC` (configuration not stated), the Potency was inconclusive: 25.1 µM [inhibitor, single point].
`COc1cccc(/C=C/c2ccncc2)c1OC` was tested, and the Potency was inconclusive: 39.8 µM [inhibitor, single point].
With `O=C(O)C1CCCN1c1ncccn1` (configuration not stated) the Potency was “inactive”.
With `CC1(C)CC(C)(c2ccc(O)cc2O)N(c2ccc3ccccc3c2)C(=S)N1` (configuration not stated) the Potency was “inactive”.
For `CCN(CC)S(=O)(=O)c1ccc(O)c(C(=O)OCC(=O)Nc2ccc(OC(F)(F)F)cc2)c1`, the Potency was inconclusive: 31.6 µM [inhibitor, partial curve].
With `CCN(CC)CCn1c(-c2ccccc2)nc2c(NCCO)nc(C)nc21` the Potency was inconclusive: 31.6 µM [inhibitor, partial curve].
With `CCN(CC)CCCN=Cc1c(O)n(-c2ccc(C)cc2)c(=O)c2ccccc12` the Potency was inconclusive: 28.2 µM [inhibitor, single point].
In the case of `CC(C)NC1=C(Cl)C(=O)c2ccccc2C1=O`, the Potency is reported as inconclusive: 14.1 µM [inhibitor, partial curve].
With `CCc1cc(=O)oc2cc(C)cc(OCC(C)=O)c12` the Potency was inconclusive: 8.91 µM [inhibitor, partial curve].
In the case of `Cc1cc(C)nc(SCc2cc(=O)c(OC(=O)c3cc([N+](=O)[O-])ccc3Cl)co2)n1`, the Potency is reported as inconclusive: 39.8 µM [inhibitor, single point].
With `O=c1cc(-c2ccccc2)nc2nc(CCc3ccccc3)[nH]n12` the Potency was “inactive”.
`Cc1cc(C)n(-c2cccc(Cl)c2)c(=O)c1C#N` was tested, and the Potency was inconclusive: 35.5 µM [inhibitor, single point].
`CCC(C)[C@H](NC(=O)NCc1ccco1)C(=O)OC` (some centres not stated) was tested, and the Potency was “inactive”.
`CC1CCCCN1Cc1ccc(N(C)C)cc1` (configuration not stated) was tested, and the Potency was inconclusive: 28.2 µM [inhibitor, partial curve].
For `O=c1c2ccccc2sn1-c1cc(S(=O)(=O)N2CCOCC2)ccc1N1CCCC1`, the Potency was active: 14.1 µM.
In the case of `Clc1ccc(N2COC3c4cccc5cccc(c45)C32)cc1` (configuration not stated), the Potency is reported as “inactive”.
`CC(C)Cn1c(N)c(C(=O)NCC2CCCO2)c2nc3ccccc3nc21` (configuration not stated) was tested, and the Potency was inconclusive: 25.1 µM [inhibitor, partial curve].
For `CCOC(=O)CC(=O)CSc1nc2c(cc1C#N)CCC2`, the Potency was inconclusive: 35.5 µM [inhibitor, single point].
With `COc1cc(NC(=O)c2cc3cccc(OC)c3o2)cc(C(=O)Nc2cccc(C(F)(F)F)c2)c1` the Potency was inconclusive: 39.8 µM [inhibitor, single point].
In the case of `Oc1ccc(C2C=C(c3ccc(F)cc3)Nc3ncnn32)cc1` (configuration not stated), the Potency is reported as inconclusive: 35.5 µM [inhibitor, single point].
For `CCOC(=O)c1cc(NC(=O)N(CC)CC)c(C)nc1C`, the Potency was inconclusive: 39.8 µM [inhibitor, single point].
For `Cc1ccc(NC(=O)CN(C)c2ccc(S(=O)(=O)N3CCN(C)CC3)cn2)cc1`, the Potency was inconclusive: 35.5 µM [inhibitor, single point].
For `Cc1cc(C)c2[nH]c(=O)c(CN(Cc3ccc4c(c3)OCO4)Cc3nnnn3C3CCCC3)cc2c1`, the Potency was inconclusive: 35.5 µM [inhibitor, single point].
For `C=CCSc1nnc(Cc2c(C)[nH]c3ccccc23)o1`, the Potency was “inactive”.
With `CC(=O)C1=C(O)C(=O)N(c2cccnc2)C1c1cccc([N+](=O)[O-])c1` (configuration not stated) the Potency was inconclusive: 39.8 µM [inhibitor, single point].
With `O=[N+]([O-])c1c(NCCO)cc(N2CCN(Cc3ccc4c(c3)OCO4)CC2)c2nonc12` the Potency was “inactive”.
With `CSc1ccc(/C=C(\C#N)C(=O)NC2CCCCC2)cc1` the Potency was inconclusive: 7.08 µM [inhibitor, single point].
For `CCCN1CC=C2C(C#N)=C(N)C(C#N)(C#N)C(c3cccc(OC)c3OC)C2C1` (configuration not stated), the Potency was inconclusive: 28.2 µM [inhibitor, partial curve].
In the case of `O=C(CC1C(=O)NCCN1Cc1cccc(Oc2ccccc2)c1)NCC1CCOCC1` (configuration not stated), the Potency is reported as inconclusive: 31.6 µM [inhibitor, single point].
With `O=C(Nc1ccc(NC(=O)c2ccccc2O)cc1)Nc1ccc(F)cc1F` the Potency was inconclusive: 28.2 µM [inhibitor, partial curve].
For `CC1=C(C(=O)OC2CCCC2)C(c2ccc(C)o2)C2=C(CC(c3cccs3)CC2=O)N1` (configuration not stated), the Potency was inconclusive: 31.6 µM [inhibitor, single point].
In the case of `O=C(c1cccc([N+](=O)[O-])c1)N1CCOCC1`, the Potency is reported as inconclusive: 39.8 µM [inhibitor, single point].
For `O=C(CCNC(=O)c1ccccc1Cl)N/N=C\c1ccc(O)cc1`, the Potency was “inactive”.
`COc1ccc(-c2nn(-c3ccccc3)cc2/C=C(\C#N)S(=O)(=O)c2ccccc2)cc1OC` was tested, and the Potency was “inactive”.
In the case of `NC(=O)c1ccc(-c2ccc(Br)cc2)o1`, the Potency is reported as inconclusive: 28.2 µM [inhibitor, single point].
`O=C(c1ccncc1)c1ccc(N2CCN(C3CC(=O)N(Cc4ccccc4)C3=O)CC2)cc1` (configuration not stated) was tested, and the Potency was “inactive”.
For `CCCn1c(=N)n(CC(=O)c2ccco2)c2ccccc21`, the Potency was inconclusive: 31.6 µM [inhibitor, single point].
With `O=C(Nc1ccc(F)cc1Cl)c1ccc2c(=O)n3c(nc2c1)CCCCC3` the Potency was “inactive”.
In the case of `C=CCNc1nc(-c2sc(NC(C)=O)nc2C)cs1`, the Potency is reported as inconclusive: 39.8 µM [inhibitor, single point].
`O=C(Cn1cc(C(=O)c2cccs2)c2ccccc21)NCC1CCCO1` (configuration not stated) was tested, and the Potency was “inactive”.
With `O=C(c1ccco1)N1CCN(C(c2ccccc2F)c2nnnn2CC2CCCO2)CC1` (configuration not stated) the Potency was “inactive”.
For `O=C(O)CCC(=O)c1ccc2ccc3cccc4ccc1c2c34`, the Potency was inconclusive: 28.2 µM [inhibitor, partial curve].
With `COc1cc(C#CC#CCN2CCCCC2)ccc1O` the Potency was inconclusive: 39.8 µM [inhibitor, single point].
`CCOC(=O)c1c(NC(=S)Nc2ccc(OC)cc2)sc2c1CCC2` was tested, and the Potency was “inactive”.
For `CCc1cc2cc3c(cc2nc1SCC(=O)Nc1cc(OC)c(OC)cc1C(=O)O)OCO3`, the Potency was inconclusive: 25.1 µM [inhibitor, partial curve].
For `O=C(Nc1cnn(Cc2ccc(F)cc2)c1)c1cc(-c2ccco2)on1`, the Potency was inconclusive: 28.2 µM [inhibitor, partial curve].
With `CC(c1nc2ccccc2c(=O)[nH]1)N(C)c1ccc2ccccc2c1` (configuration not stated) the Potency was inconclusive: 39.8 µM [inhibitor, single point].
For `Cc1cccc(Nc2nc(N)nc(CN3CCN(Cc4ccc5c(c4)OCO5)CC3)n2)c1`, the Potency was “inactive”.
In the case of `c1ccc(-n2ncc3cccnc32)cc1`, the Potency is reported as inconclusive: 31.6 µM [inhibitor, partial curve].
In the case of `COc1cc2cc(C(c3nnnn3C3CCCCC3)N(C)C3CCCCC3)c(=O)[nH]c2cc1OC` (configuration not stated), the Potency is reported as inconclusive: 25.1 µM [inhibitor, partial curve].
For `OCC1(CCOc2ccccc2)CCN(CC2=Cc3cc(Cl)ccc3OC2)CC1`, the Potency was inconclusive: 35.5 µM [inhibitor, single point].
`Cc1ccc2cccc(OCC(=O)NCc3ccco3)c2n1` was tested, and the Potency was inconclusive: 39.8 µM [inhibitor, single point].
For `COC(=O)c1cccc(N2C(=O)c3cccnc3C2=O)c1`, the Potency was “inactive”.
In the case of `CCOC(=O)N1CCC(NC(=O)CSc2cc(=O)n(C)c3ccccc23)CC1`, the Potency is reported as inconclusive: 31.6 µM [inhibitor, single point].
`COc1ccc(C2NC3=C(CCCC3)C(C#N)(C#N)C2(C#N)C#N)cc1` (configuration not stated) was tested, and the Potency was inconclusive: 20 µM [inhibitor, partial curve].
With `N#CC1=C2N=C(N)c3c(sc4c3CCCCC4)N2C2=C(C(=O)CCC2)C1c1ccccc1` (configuration not stated) the Potency was “inactive”.
In the case of `COc1ccccc1OCCNC(=O)C1CCCCC1`, the Potency is reported as “inactive”.
